B1: SEQ ID NO: 101 (Fc fusion)
chain: [about 400 residues with a human IgG4 Fc not written out]GGGGSSSRTPSDKPVAHVVANPQAEGQLQWLNRRANALLANGVELRDNQLVVPSEGLYLIYSQVLFKGQGCPSTHVLLTHTISRIAVSYQTKVNLLSAIKSPCQRETPEGAEAKPWYEPIYLGGVFQLEKGDRLSAEINRPDYLNFRESGQVYFGIIALGGGGSSSRTPSDKPVAHVVANPQAEGQLQWLNRRANALLANGVELRDNQLVVPSEGLYLIYSQVLFKGQGCPSTHVLLTHTISRIAVSYQTKVNLLSAIKSPCQRETPEGAEAKPWYEPIYLGGVFQLEKGDRLSAEINRPDYLNFRESGQVYFGIIAL
notes: also called Fc-scTNFR2
B2: SEQ ID NO: 113 (other)
chain: [about 400 residues with a human IgG1 Fc not written out]GGGGSSSRTPSDKPVAHVVANPQAEGQLQWLNRRANALLANGVELRDNQLVVPSEGLYLIYSQVLFKGQGCPSTHVLLTHTISRIAVSYQTKVNLLSAIKSPCQRETPEGAEAKPWYEPIYLGGVFQLEKGDRLSAEINRPDYLNFRESGQVYFGIIALGGGGSSSRTPSDKPVAHVVANPQAEGQLQWLNRRANALLANGVELRDNQLVVPSEGLYLIYSQVLFKGQGCPSTHVLLTHTISRIAVSYQTKVNLLSAIKSPCQRETPEGAEAKPWYEPIYLGGVFQLEKGDRLSAEINRPDYLNFRESGQVYFGIIAL
B3: SEQ ID NO: 115 (other)
chain: [about 150 residues not written out]GGGGSSSRTPSDKPVAHVVANPQAEGQLQWLNRRANALLANGVELRDNQLVVPSEGLYLIYSQVLFKGQGCPSTHVLLTHTISRIAVSYQTKVNLLSAIKSPCQRETPEGAEAKPWYEPIYLGGVFQLEKGDRLSAEINRPDYLNFRESGQVYFGIIALGGGGSSSRTPSDKPVAHVVANPQAEGQLQWLNRRANALLANGVELRDNQLVVPSEGLYLIYSQVLFKGQGCPSTHVLLTHTISRIAVSYQTKVNLLSAIKSPCQRETPEGAEAKPWYEPIYLGGVFQLEKGDRLSAEINRPDYLNFRESGQVYFGIIALGGGGS[human IgG1 Fc with C220S L234A L235A P331S (EU numbers) not written out]
B4: SEQ ID NO: 116 (other)
chain: [about 150 residues not written out]GGGGSSSRTPSDKPVAHVVANPQAEGQLQWLNRRANALLANGVELRDNQLVVPSEGLYLIYSQVLFKGQGCPSTHVLLTHTISRIAVSYQTKVNLLSAIKSPCQRETPEGAEAKPWYEPIYLGGVFQLEKGDRLSAEINRPDYLNFRESGQVYFGIIALGGGGSSSRTPSDKPVAHVVANPQAEGQLQWLNRRANALLANGVELRDNQLVVPSEGLYLIYSQVLFKGQGCPSTHVLLTHTISRIAVSYQTKVNLLSAIKSPCQRETPEGAEAKPWYEPIYLGGVFQLEKGDRLSAEINRPDYLNFRESGQVYFGIIALGGGGSERKSSVECPPCPAPPVAGPSVFLFPPKPKDTLMISRTPEVTCVVVDVSHEDPEVQFNWYVDGVEVHNAKTKPREEQFNSTFRVVSVLTVVHQDWLNGKEYKCKVSNKGLPASIEKTISKTKGQPREPQVYTLPPSREEMTKNQVSLTCLVKGFYPSDIAVEWESNGQPENNYKTTPPMLDSDGSFFLYSKLTVDKSRWQQGNVFSCSVMHEALHNHYTQKSLSLSPGK

Target: T1, huTNFR2-Fc (human, UniProt P20333 23-257)
T1 construct: Coated on ELISA wells; also called hTNFR2-Fc
T1 sequence (looked up): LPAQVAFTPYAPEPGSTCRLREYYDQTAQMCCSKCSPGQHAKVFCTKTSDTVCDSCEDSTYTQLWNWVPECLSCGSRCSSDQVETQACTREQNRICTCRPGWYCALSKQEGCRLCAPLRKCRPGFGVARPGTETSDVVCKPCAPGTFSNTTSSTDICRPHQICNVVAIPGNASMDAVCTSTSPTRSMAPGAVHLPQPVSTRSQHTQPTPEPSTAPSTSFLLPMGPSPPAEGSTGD
Test: ELISA, coated hTNFR2-Fc, detection with anti-TNF alpha mAb F6C5

Row | Binder | Kd [pM]
1 | B1 | 440
2 | B2 | 210
3 | B3 | 280
4 | B4 | 300
